Source: PubChem BioAssay AID743255 (National Center for Advancing Translational Sciences (NCATS), 2014)
Screen size: about 390,000 compounds; about 910 (0.23%) were called active. Roughly 5% stayed inconclusive and do not appear here. Calls come from the whole dose curve; as a rule, active = well fitted inhibition curve with a large enough effect; inconclusive = small, poorly fitted or top-dose-only effect; inactive = no such curve, though single readings can be large or run the other way. The list shows a part of the results, in another mix than the full data.

What follows are molecules tested against Ubiquitin carboxyl-terminal hydrolase 1 (Homo sapiens) (UniProt O94782) (assay: Inhibitors of USP1/UAF1: Primary Screen). Details: recombinant USP1/UAF1, Ub-Rhodamine cleavage fluorescence; activity change, negative = inhibition: at 57.1 µM (top of the series).
Outline: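 USP1/UAF1 complex at 1 nM was preincubated with compound for 15 min at room temperature, then Ub-Rho substrate (150nM final) was added. Fluorescence (480/540 nm) was read kinetically, 6 reads every 60 seconds.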
% is set by controls: 0 for no effect and ±100 for the full control effect; potency is the fitted concentration of half-maximal effect.
Note: nearly all actives have a fitted effect of over 60% in size.

Chain of UniProt O94782 (O94782 whole entry, looked up): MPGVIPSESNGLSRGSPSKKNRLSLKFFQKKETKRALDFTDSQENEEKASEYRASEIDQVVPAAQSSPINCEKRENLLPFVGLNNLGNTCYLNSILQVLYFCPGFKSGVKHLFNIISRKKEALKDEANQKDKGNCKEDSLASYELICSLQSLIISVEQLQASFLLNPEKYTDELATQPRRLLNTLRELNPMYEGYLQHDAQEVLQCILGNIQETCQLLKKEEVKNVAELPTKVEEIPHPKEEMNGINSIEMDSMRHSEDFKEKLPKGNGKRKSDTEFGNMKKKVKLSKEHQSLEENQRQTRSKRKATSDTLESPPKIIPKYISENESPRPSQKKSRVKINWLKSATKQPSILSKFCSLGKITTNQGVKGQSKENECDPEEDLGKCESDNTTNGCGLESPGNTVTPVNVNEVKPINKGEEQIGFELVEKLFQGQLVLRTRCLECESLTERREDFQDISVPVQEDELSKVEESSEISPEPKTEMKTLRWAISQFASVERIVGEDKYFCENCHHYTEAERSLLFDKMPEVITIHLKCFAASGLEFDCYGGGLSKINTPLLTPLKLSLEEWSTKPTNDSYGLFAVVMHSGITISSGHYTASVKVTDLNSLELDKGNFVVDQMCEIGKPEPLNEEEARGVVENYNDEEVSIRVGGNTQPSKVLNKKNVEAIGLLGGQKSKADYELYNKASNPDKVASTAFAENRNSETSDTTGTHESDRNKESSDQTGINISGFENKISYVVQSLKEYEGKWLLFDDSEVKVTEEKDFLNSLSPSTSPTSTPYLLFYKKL

Activity change, negative = inhibition, inactive:
COC(C[C@@H]1O[C@@H]1C(=O)[C@H](C)OCc1ccccc1)OC -24.4%
C=CCC[C@H](Cc1ccc(F)cc1)C(=O)OC[C@@H](Cc1c[nH]c2ccccc12)NC(=O)[C@@H](CC=C)CC(=O)N(CCO)Cc1ccccc1 13.7%
CCCOc1cccc(C2C(C(=O)c3cccs3)=C(O)C(=O)N2Cc2cccnc2)c1 (stereo not drawn) 103%
COC(=O)c1ccccc1NC(=O)CCCN1C(=O)C(c2ccccc2)Oc2cccnc21 (stereo not drawn) -30.7%
Cn1ncc2c(N3CCOCC3)ncnc21 31.6%
O=C(Nc1ccccc1)C1=C[C@H](c2ccc3c(c2)OCO3)C[C@H](OCCCCO)O1 -21.7%
O=C1N[C@@H](c2ccccc2)COC(=O)[C@@H](Cc2ccc(F)cc2)CC/C=C/C[C@H]1CC(=O)N(CCO)Cc1ccccc1 0.576%
O=C1N[C@@H](Cc2ccccc2)COC(=O)[C@H](Cc2ccc(F)cc2)CC/C=C/C[C@H]1CC(=O)N(CCO)Cc1ccccc1 3.34%
C[C@H]1COC(=O)[C@@H](Cc2ccc(F)cc2)C/C=C\C[C@@H](CC(=O)NCCO)C(=O)N1 -2.36%
C=CC[C@@H](Cc1ccc(F)cc1)C(=O)OC[C@@H]1CCCN1C(=O)[C@@H](CC=C)CC(=O)NCCO -20.1%
COc1cc2c(C(=O)N3CCN(c4cccc(Cl)c4)CC3)cn(C)c(=O)c2cc1OC -18%
CCc1ccccc1NC(=O)c1cc(-c2ccc(OC)cc2)on1 -20.1%
OCC[C@H]1C[C@H](O)[C@@H](O)[C@@]2(CCCCO2)O1 -27.7%
CC(=O)c1cccc(N(C(=O)Cn2nnc3ccccc32)C(C(=O)NCc2ccccc2)c2ccc(F)cc2)c1 (stereo not drawn) -8.52%
CCN(c1ccc(OC)cc1)S(=O)(=O)c1nnc(NC(=O)COc2ccc(F)cc2)s1 -20.7%
Cc1ccccc1OCc1n(CC(=O)OC2CC(C)CCC2C(C)C)c2ccccc2[n+]1C (stereo not drawn) -1.86%
CC1(C)OC2C(O1)[C@@H](CO)O[C@H]2n1cnc2c(N)ncnc21 (stereo partly drawn) -17.2%
C=CCC[C@H](Cc1ccc(F)cc1)C(=O)OC[C@H](Cc1c[nH]c2ccccc12)NC(=O)[C@H](CC=C)CC(=O)N(CCO)Cc1ccccc1 -18.6%
O=C(O)c1ccc(Nc2nc(-c3ccccc3)c3cc(Br)ccc3n2)cc1 39.1%
O=C(O)C1=C[C@@H](c2ccc(Br)cc2)C[C@@H](OCc2ccc(CO)cc2)O1 -23.7%
C[C@@H]1CN([C@@H](C)CO)C(=O)CCCn2cc(nn2)CO[C@H]1CN(C)S(=O)(=O)c1ccccc1 -21.9%
COc1cc2ccc(=O)oc2c(O[C@@H]2O[C@H](CO)[C@@H](O)[C@H](O)[C@H]2O)c1O -23.2%
COC(C[C@@H]1O[C@H]1[C@@H](O)[C@@H](C)OCc1ccccc1)OC 0.0132%
C[C@@H]1CN(S(=O)C(C)(C)C)[C@H](CCO)/C1=C\c1ccccc1 (stereo partly drawn) -26.7%
CCOC(=O)[C@@H]1[C@H]2COc3ccccc3[C@@H]2N2C(=O)N(c3ccc(Cl)cc3)C(=O)[C@]12C -19.5%
O=C(N/C(=C/c1ccccc1)C(=O)N1CCCCCC1)c1ccccc1 -11.7%
COc1ccccc1CN1C(=O)CN(C2CCCCCC2)C(=O)C1c1ccc(F)cc1 (stereo not drawn) -17%
CC(=O)Nc1ccc(S(=O)(=O)Nc2nc3ccccc3nc2-n2ccc(=NC(=O)c3ccc(F)cc3)cc2)cc1 223%
COc1ccc2cc(-c3nc(Cl)c4c5c(sc4n3)CC(C)CC5)c(=O)oc2c1 (stereo not drawn) 102%
C[C@H](O)C#Cc1ccc2c(c1)O[C@@H](CN(C)Cc1ccc(-c3ccccc3)cc1)[C@H](C)CN([C@@H](C)CO)S2(=O)=O -24%
O=C(c1cccnc1)N1CCN(Cc2cccc(Br)c2)CC1 33.8%
COC(C[C@@H]1O[C@H]1[C@H](O)COCc1ccccc1)OC -6.32%
COC(C[C@H]1O[C@H]1[C@@H](O)COCc1ccccc1)OC -28.2%
COc1ccc(-c2cc(=O)c3c(O)cc(OC4OC(COC5OC(C)C(O)C(O)C5O)C(O)C(O)C4O)cc3o2)cc1O (stereo not drawn) -25.5%
CC1CCN(S(=O)(=O)c2ccc3c(c2)N(CC(=O)NCCCN2CCCCC2C)C(=O)CS3)CC1 (stereo not drawn) -18.6%
CCOC(=O)[C@@H]1[C@H]2COc3ccccc3[C@@H]2N2C(=O)N(c3ccccc3)C(=O)[C@]12C -24.6%
COc1cc(/C=C2\SC(=O)N(CC(=O)Nc3ccc(C)cc3)C2=O)cc(Cl)c1OCC(=O)O 15%
C[C@@H](NC(=O)c1nc[nH]c1C(=O)N[C@H](C)c1ccccc1)c1ccccc1 -21.1%
Cc1ccc(-c2nn3c(C)nnc3c3ccccc23)cc1S(=O)(=O)NC(C)(C)CO -19.4%
CC1=NN(c2ccccc2)C(=O)/C1=C\C=C1\N(C)c2ccccc2C1(C)C -23.5%
O=c1c2ccccc2c(/C=N/c2ncn[nH]2)c(O)n1Cc1ccccc1 -12.2%
COc1ccc2[nH]c(S(=O)Cc3ncc(C)c(OC)c3C)nc2c1 (stereo not drawn) -23.2%
C[C@H](NC(=O)c1[nH]cnc1C(=O)N[C@@H](C)CO)c1ccccc1 -2.63%
COc1ccccc1/C=C/C=N/n1c(C2CCCCC2)n[nH]c1=S -7.61%
C/C(=N\NC(=O)c1ccccc1F)c1ccc2c(c1)Nc1ccccc1S2 77.9%
CCN(C(=O)CCNC(=O)Cn1cnc2ccccc2c1=O)c1cccc(Cl)c1 4.84%
Cc1ccc(/C=C2/SC(=S)N(CCC(=O)N3CCOCC3)C2=O)cc1 -21%
O=C(C[C@@H]1C/C=C\C[C@H](NC(=O)OCC2c3ccccc3-c3ccccc32)C(=O)OC[C@@H]2CCCN2C1=O)N[C@H](CO)Cc1ccccc1 -25%
COc1ccc(CN(C)C[C@H]2OCc3cnnn3CCCC(=O)N([C@H](C)CO)C[C@@H]2C)cc1 -1.62%
O=C(NC(Cc1ccccc1)C(=O)O)/C(=C\c1ccc([N+](=O)[O-])cc1)NC(=O)c1ccco1 (stereo not drawn) -7.27%
S=c1[nH]nc(-c2ccc(Cl)cc2)n1Cc1ccccc1 -12.8%
Cc1cccc(C(=O)O[C@H]2[C@H](Cc3ccccc3)NS(=O)(=O)[C@H]3CC4C=C[C@]23O4)c1 -18.7%
COC(C[C@H]1O[C@@H]1[C@H](O)[C@H](C)OCc1ccccc1)OC -20.9%
C=CC[C@@H](CC(=O)N(CCO)Cc1ccccc1)C(=O)N[C@H](COC(=O)[C@@H](CC=C)Cc1ccc(F)cc1)Cc1ccccc1 -15.2%
COc1cc(/C=C2\S/C(=N/S(=O)(=O)Cc3ccccc3)NC2=O)c([N+](=O)[O-])cc1OC -14.5%
C[C@@H]1CN([C@@H](C)CO)C(=O)CCCn2nncc2CO[C@@H]1CN(C)C(=O)Nc1ccc2c(c1)OCO2 -24.7%
O=C(CCn1c(=O)c2cccn2c2ccc(F)cc21)NCCc1ccccc1 11.9%
CN(/N=C/c1ccc(N(C)C)cc1)C1=NS(=O)(=O)c2ccccc21 75.8%
O=C(C[C@H]1C/C=C\C[C@H](NC(=O)OCC2c3ccccc3-c3ccccc32)C(=O)O[C@H](c2ccccc2)CNC1=O)N[C@H](CO)Cc1ccccc1 -16.6%
O=c1cc2c(c(-c3ccccc3)n1Cc1ccccc1)[C@@H](CCO)NC2 -20.2%
N#C/C(=C/c1ccc(N2CCCCC2)o1)C(=O)Nc1ccc2ccccc2c1 34.4%
C[C@H](CO)N1C[C@H](C)[C@@H](CN(C)C(=O)c2ccccc2)OCc2cnnn2CCCC1=O -12.3%
N#Cc1ccccc1NC(=O)CSc1nc(-c2ccccc2)cc(C(F)(F)F)c1C#N 329%
[O-]C(=C(C(=S)Nc1cccc2ccccc12)[n+]1ccccc1)c1ccc2c(c1)OCCO2 -23%
C[C@]12C(=O)N(c3ccc(Br)cc3)C(=O)N1[C@@H]1c3ccccc3OC[C@@H]1[C@H]2c1ccccc1 14.1%
OCC[C@H]1C[C@@H](O)[C@H](O)[C@@]2(CCCCO2)O1 -24.7%
C=C(C)C(=O)Nc1cccc(C2=NOC3(C2)C[C@H](C(N)=O)N(C(=O)c2ccccc2C(=O)c2ccccc2)C3)c1 (stereo partly drawn) 23.2%
COc1ccc([C@H]2C[C@@H](O)[C@H](n3cc(-c4ccc(F)cc4)nn3)CN2C(=O)C2CCCCC2)cc1 -19.3%
C[C@H](CO)N1C[C@H](C)[C@H](CN(C)S(=O)(=O)c2ccc(Oc3ccccc3)nc2)OCc2cnnn2CCCC1=O -17.4%
CC(C)(C)[C@@H]1COC(=O)[C@@H](Cc2ccc(F)cc2)CC/C=C\C[C@@H](CC(=O)N(CCO)Cc2ccccc2)C(=O)N1 -25.4%
C[C@H](CO)N1C[C@H](C)[C@@H](CN(C)C(=O)C2CCCCC2)OCc2cnnn2CCCC1=O -4.81%
C[C@H]1Cn2cnc(C(=O)Nc3cccc(Cl)c3)c2C(=O)N1 -25.4%
Cc1ccc(C(=O)N/C(=C/C=C\c2ccccc2)C(=O)NCc2ccco2)cc1 -12.2%
COc1ccc(N2CCN(C(=O)c3ccc4c(=O)n(CCc5ccc(OC)c(OC)c5)c(=O)[nH]c4c3)CC2)cc1 -9.75%

Potency, active:
COc1ccccc1NC1=C(N2CCCCC2)C(=O)c2ccccc2C1=O 17.8 µM
Cc1ccccc1NC1=C/C(=N\S(=O)(=O)c2ccc(C(=O)O)cc2)c2ccccc2C1=O 1.26 µM
CCCN1C=CC(=CC=C(C#N)C#N)C=C1 22.4 µM
Cc1ccc(S(=O)(=O)/N=C2\C=C(Nc3ccc(O)cc3)C(=O)c3ccccc32)cc1 11.2 µM
COCC(=O)OC1CCn2c1nc1c2C(=O)C(C)=C(NC(C)=O)C1=O (stereo not drawn) 4.47 µM
CCOC(=O)c1c(-c2ccccc2)csc1NC(=O)/C(C#N)=C\c1ccc(O)c(OC)c1 15.8 µM
S=C1Cc2ccccc2N1 28.2 µM
CC(C)(C)C(=O)[C@@H]1[C@@H]2C(=O)N(C3CCCCC3)C(=O)[C@@H]2[C@H]2c3ccccc3C=CN12 25.1 µM
CCN(CCCNC(=O)c1cc2c(=O)n(CC)c3ccccc3c2s1)Cc1ccccc1 28.2 µM
